# Laboratory results as given in the supplement of paper PMC8728848.
# This is one part of the list.
# B1: CC1G-11630 (Coprinopsis cinerea), A8P462 (protein)
# chain: MTTEAKIKLKAVVYWELVFDYDNSSNTGEITQSYTVKISQTSTRSTFASEVSTTTIDTLTKNNQEVDVGASYGAISANVSASWEHSEEVNNMLEKTTQTSTEDTYTVETEETRSYTIGPGGMLSLFQKHFSGPGMHVAFDVFTTDLELAKERTEIDIDVDVEAIRFVREIRVVYTDIMSEAPGDHVREINGKNPDINYGFNGKFVWLVPEQTRKTAQALTNVEFVSQAESDDRYWDLAAGAGGSNRYLIPVYDTNNKDKIYELALWRSDSYITHDKVKAAGWSGTTGDINSGRGGTYLNLVWKTRHAY
# Tests used:
# Experiment in all cases: glycan array binding signal (z-score within array); higher = stronger binding
# Conditions in all cases: glycan notation: IUPAC condensed, linker removed
# Neu5Ac(a2-3)Gal = biological target: Neu5Ac(a2-3)Gal
# Method in brief: (§1)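 Glycan array binding is given as a within-array Z-score, which can be read as non-binding when negative. The arrays, 3228 of them, came from the Consortium for Functional Glycomics database and were retained only where the protein sequence was available. Z-scores were averaged across arrays of the same protein sequence at different concentrations or buffers and across linkers.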
# [1] = biological target: Neu5Ac(a2-3)Gal(b1-3)GalNAc
# Method in brief: as §1
# [2] = biological target: Neu5Ac(a2-3)Gal(b1-3)GalNAc(b1-3)Gal(a1-4)Gal(b1-4)Glc
# Method in brief: as §1
# [3] = biological target: Neu5Ac(a2-3)Gal(b1-3)GalNAc(b1-4)[Neu5Ac(a2-3)]Gal(b1-4)Glc
# Method in brief: as §1
# [4] = biological target: Neu5Ac(a2-3)Gal(b1-3)GalNAc(b1-4)[Neu5Ac(a2-8)Neu5Ac(a2-3)]Gal(b1-4)Glc
# Method in brief: as §1
# [5] = biological target: Neu5Ac(a2-3)Gal(b1-3)GalNAc6S
# Method in brief: as §1
# [6] = biological target: Neu5Ac(a2-3)Gal(b1-3)GlcNAc
# Method in brief: as §1
# [7] = biological target: Neu5Ac(a2-3)Gal(b1-3)GlcNAc(b1-2)Man
# Method in brief: as §1
# [8] = biological target: Neu5Ac(a2-3)Gal(b1-3)GlcNAc(b1-2)Man(a1-3)[GlcNAc(b1-4)][Neu5Ac(a2-3)Gal(b1-3)GlcNAc(b1-2)Man(a1-6)]Man(b1-4)GlcNAc(b1-4)GlcNAc
# Method in brief: as §1
# [9] = biological target: Neu5Ac(a2-3)Gal(b1-3)GlcNAc(b1-2)Man(a1-3)[Neu5Ac(a2-3)Gal(b1-3)GlcNAc(b1-2)Man(a1-6)]Man(b1-4)GlcNAc(b1-4)GlcNAc
# Method in brief: as §1
# [10] = biological target: Neu5Ac(a2-3)Gal(b1-3)GlcNAc(b1-3)Gal(b1-3)GlcNAc
# Method in brief: as §1
# [11] = biological target: Neu5Ac(a2-3)Gal(b1-3)GlcNAc(b1-3)Gal(b1-4)GlcNAc
# Method in brief: as §1
# [12] = biological target: Neu5Ac(a2-3)Gal(b1-3)GlcNAc(b1-3)GalNAc
# Method in brief: as §1
# [13] = biological target: Neu5Ac(a2-3)Gal(b1-3)GlcNAc(b1-4)Gal(b1-4)Glc
# Method in brief: as §1
# [14] = biological target: Neu5Ac(a2-3)Gal(b1-3)GlcNAc(b1-6)GalNAc
# Method in brief: as §1
# [15] = biological target: Neu5Ac(a2-3)Gal(b1-3)GlcNAc6S
# Method in brief: as §1
# [16] = biological target: Neu5Ac(a2-3)Gal(b1-3)[Fuc(a1-4)]GlcNAc
# Method in brief: as §1
# [17] = biological target: Neu5Ac(a2-3)Gal(b1-3)[Fuc(a1-4)]GlcNAc(b1-3)Gal(b1-3)[Fuc(a1-4)]GlcNAc
# Method in brief: as §1
# [18] = biological target: Neu5Ac(a2-3)Gal(b1-3)[Fuc(a1-4)]GlcNAc(b1-3)Gal(b1-4)[Fuc(a1-3)]GlcNAc
# Method in brief: as §1
# [19] = biological target: Neu5Ac(a2-3)Gal(b1-3)[GlcNAc(b1-6)]GalNAc
# Method in brief: as §1
# [20] = biological target: Neu5Ac(a2-3)Gal(b1-3)[Neu5Ac(a2-6)]GalNAc
# Method in brief: as §1
# [21] = biological target: Neu5Ac(a2-3)Gal(b1-3)[Neu5Ac(a2-6)]GlcNAc(b1-3)[Fuc(a1-3)[Gal(b1-4)]GlcNAc(b1-6)]Gal(b1-4)Glc
# Method in brief: as §1
# [22] = biological target: Neu5Ac(a2-3)Gal(b1-3)]Neu5Ac(a2-3)Gal(b1-4)]GlcNAc
# Method in brief: as §1
# Neu5Ac(a2-3)Gal(b1-4)Glc = biological target: Neu5Ac(a2-3)Gal(b1-4)Glc
# Method in brief: as §1
# [23] = biological target: Neu5Ac(a2-3)Gal(b1-4)GlcNAc
# Method in brief: as §1
# [24] = biological target: Neu5Ac(a2-3)Gal(b1-4)GlcNAc(b1-2)Man
# Method in brief: as §1
# [25] = biological target: Neu5Ac(a2-3)Gal(b1-4)GlcNAc(b1-2)Man(a1-3)[GlcNAc(b1-4)][Neu5Ac(a2-3)Gal(b1-4)GlcNAc(b1-2)Man(a1-6)]Man(b1-4)GlcNAc(b1-4)GlcNAc
# Method in brief: as §1
# [26] = biological target: Neu5Ac(a2-3)Gal(b1-4)GlcNAc(b1-2)Man(a1-3)[Neu5Ac(a2-3)Gal(b1-4)GlcNAc(b1-2)Man(a1-6)]Man(b1-4)GlcNAc(b1-4)GlcNAc
# Method in brief: as §1
# [27] = biological target: Neu5Ac(a2-3)Gal(b1-4)GlcNAc(b1-2)Man(a1-3)[Neu5Ac(a2-3)Gal(b1-4)GlcNAc(b1-2)Man(a1-6)]Man(b1-4)GlcNAc(b1-4)[Fuc(a1-6)]GlcNAc
# Method in brief: as §1
# [28] = biological target: Neu5Ac(a2-3)Gal(b1-4)GlcNAc(b1-2)Man(a1-3)[Neu5Ac(a2-6)Gal(b1-4)GlcNAc(b1-2)Man(a1-6)]Man(b1-4)GlcNAc(b1-4)GlcNAc
# Method in brief: as §1
# [29] = biological target: Neu5Ac(a2-3)Gal(b1-4)GlcNAc(b1-2)[Neu5Ac(a2-3)Gal(b1-4)GlcNAc(b1-4)]Man(a1-3)[GlcNAc(b1-4)][Neu5Ac(a2-3)Gal(b1-4)GlcNAc(b1-2)[Neu5Ac(a2-3)Gal(b1-4)GlcNAc(b1-6)]Man(a1-6)]Man(b1-4)GlcNAc(b1-4)GlcNAc
# Method in brief: as §1
# [30] = biological target: Neu5Ac(a2-3)Gal(b1-4)GlcNAc(b1-2)[Neu5Ac(a2-3)Gal(b1-4)GlcNAc(b1-4)]Man(a1-3)[GlcNAc(b1-4)][Neu5Ac(a2-3)Gal(b1-4)GlcNAc(b1-4)Man(a1-6)]Man(b1-4)GlcNAc(b1-4)GlcNAc
# Method in brief: as §1
# [31] = biological target: Neu5Ac(a2-3)Gal(b1-4)GlcNAc(b1-2)[Neu5Ac(a2-3)Gal(b1-4)GlcNAc(b1-6)]Man(a1-6)[Neu5Ac(a2-3)Gal(b1-4)GlcNAc(b1-2)Man(a1-3)]Man(b1-4)GlcNAc(b1-4)GlcNAc
# Method in brief: as §1
# [32] = biological target: Neu5Ac(a2-3)Gal(b1-4)GlcNAc(b1-2)[Neu5Ac(a2-3)Gal(b1-4)GlcNAc(b1-6)]Man(a1-6)[Neu5Ac(a2-3)Gal(b1-4)GlcNAc(b1-2)Man(a1-3)][GlcNAc(b1-4)]Man(b1-4)GlcNAc(b1-4)GlcNAc
# Method in brief: as §1
# [33] = biological target: Neu5Ac(a2-3)Gal(b1-4)GlcNAc(b1-3)Gal
# Method in brief: as §1
# [34] = biological target: Neu5Ac(a2-3)Gal(b1-4)GlcNAc(b1-3)Gal(b1-3)GlcNAc
# Method in brief: as §1
# [35] = biological target: Neu5Ac(a2-3)Gal(b1-4)GlcNAc(b1-3)Gal(b1-4)GlcNAc
# Method in brief: as §1
binder,measurement,setting,value
B1,glycan array binding signal (z-score),Neu5Ac(a2-3)Gal,-0.049
same,glycan array binding signal (z-score),[1],-0.519
same,glycan array binding signal (z-score),[2],-0.43
same,glycan array binding signal (z-score),[3],-0.253
same,glycan array binding signal (z-score),[4],-0.126
same,glycan array binding signal (z-score),[5],-0.156
same,glycan array binding signal (z-score),[6],-0.105
same,glycan array binding signal (z-score),[7],1.26
same,glycan array binding signal (z-score),[8],0.293
same,glycan array binding signal (z-score),[9],1.27
same,glycan array binding signal (z-score),[10],-0.397
same,glycan array binding signal (z-score),[11],-0.231
same,glycan array binding signal (z-score),[12],-0.329
same,glycan array binding signal (z-score),[13],-0.026
same,glycan array binding signal (z-score),[14],-0.25
same,glycan array binding signal (z-score),[15],0.714
same,glycan array binding signal (z-score),[16],-0.138
same,glycan array binding signal (z-score),[17],-0.022
same,glycan array binding signal (z-score),[18],-0.024
same,glycan array binding signal (z-score),[19],0.149
same,glycan array binding signal (z-score),[20],-0.04
same,glycan array binding signal (z-score),[21],-0.796
same,glycan array binding signal (z-score),[22],0.28
same,glycan array binding signal (z-score),Neu5Ac(a2-3)Gal(b1-4)Glc,-0.12
same,glycan array binding signal (z-score),[23],-0.323
same,glycan array binding signal (z-score),[24],1.79
same,glycan array binding signal (z-score),[25],-0.123
same,glycan array binding signal (z-score),[26],-0.556
same,glycan array binding signal (z-score),[27],-0.466
same,glycan array binding signal (z-score),[28],-0.711
same,glycan array binding signal (z-score),[29],-0.403
same,glycan array binding signal (z-score),[30],-0.701
same,glycan array binding signal (z-score),[31],-0.549
same,glycan array binding signal (z-score),[32],-0.379
same,glycan array binding signal (z-score),[33],-0.788
same,glycan array binding signal (z-score),[34],-0.449
same,glycan array binding signal (z-score),[35],-0.528
